# In the supplement of paper PMC3334620:
# Over roughly 33,000 sequences, “E-score (-0.5 to 0.5)” has its median near -0.056; the highest 2% begin near 0.38. Some of the results follow.
# Target: Stb4 (UniProt P50104)
# Assay: PBM E-score (8-mer binding enrichment) (E-score (-0.5 to 0.5)); higher = stronger / more preferred TF binding; most listed sequences are background and not binding sites
# Conditions: protein concentration: 200 nM; construct: GST-DNA-binding domain
# In short: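 Universal all-10-mer Agilent arrays, fresh or stripped once, were converted to double-stranded form by primer extension. GST-tagged yeast transcription factors from PURExpress in vitro transcription/translation, full-length or DNA-binding domain only, were applied at about 100-200 nM and detected with fluorescent anti-GST. After masliner normalisation, the Universal PBM Analysis Suite scored each ungapped eight-base word together with its reverse complement by E-score.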
row,Sequence,PBM E-score
1,CGAGGTCC,0.276
2,ATTCCATG,0.0553
3,CCCACTCC,-0.0203
4,AAGCCACA,-0.227
5,CATCTCCG,0.287
6,GCACACCA,-0.0223
7,ATTCTTCC,0.225
8,CCGCCATA,0.177
9,ATGTCTGC,-0.074
10,GCACTATA,-0.184
11,AACGACCC,0.146
12,TCGCGTCA,-0.13
13,CCCGGAGC,0.32
14,GTCCATTA,-0.172
15,GAAGGGAC,-0.172
16,ATGTTTCA,-0.0946
17,CCGGGACC,0.362
18,AAGACCAT,-0.0257
19,GAGATCAA,0.0208
20,CTCACAAG,-0.31
21,CGTATATA,-0.178
22,CCTATAGA,-0.14

row,Sequence,PBM E-score
1,CCCCGAAG,0.354
2,AAGCTGAT,0.104
3,CACAGCAC,-0.255
4,ACAAGTAC,-0.0461
5,AATTTTCG,0.0652
6,AGGACAAG,-0.276
7,GGCTACAC,0.0332
8,GGATCAAA,0.177
9,GACAGGTA,-0.0244
10,AGGGAGAG,-0.171
11,GGATCGCC,0.0259
12,AAAGACGA,-0.235
13,CACGTCGA,-0.211
14,AGCACTAA,-0.0361
15,AGGTAGGC,-0.159
16,CATTGAGG,-0.312
17,CCTTGGTA,-0.055
18,AGTTCTCC,-0.0367
19,ATCCATGG,-0.0608
20,CTAAATCC,0.205
21,GCTTGTAA,-0.109
22,CGGGATTC,0.305

row,Sequence,PBM E-score
1,CTTTGGTC,0.0244
2,AACGCTAA,-0.323
3,GGAACCGA,0.343
4,CATTGACA,-0.128
5,AGTATATG,-0.0546
6,CGCCCGGC,0.145
7,AGGGCGTG,-0.0353
8,CCCTCGTA,-0.114
9,ACACCCGA,0.445
10,GGAGTACC,0.00873
11,ATGAAATC,-0.191
12,AAGATTCC,0.0966
13,GCTGAACC,0.0509
14,CGTGTATC,0.0759
15,CCCCCTAC,-0.261
16,CCAATGAA,-0.201
17,ATATAGTC,-0.00409
18,ACCACTGA,-0.244
19,CCCCTAAC,-0.134
20,CCCGGCGA,0.215
21,CATCACAG,-0.229
22,CTATCTTC,-0.107

row,Sequence,PBM E-score
1,GCAAACGA,-0.0381
2,ACGCGAGA,-0.158
3,GAAGCGGA,0.285
4,AGGACTAT,-0.161
5,GAGCAAAC,-0.0271
6,AACGCCAT,-0.115
7,CCAACGCG,-0.0591
8,ATGACCAT,-0.119
9,CTGCATGA,-0.246
10,AACGACGT,-0.166
11,CACGAAGG,-0.107
12,ATGACGGG,0.167
13,ATTACATG,-0.0589
14,CATGGAAG,0.00865
15,AAAGTAGC,0.0242
16,AAGCAATC,-0.181
17,ACTCTGTA,-0.162
18,GTTCGAAA,-0.0541
19,AAGTTTTA,-0.075
20,ATAGGTTC,0.00038
21,AACCCCCT,-0.408
22,TACAGTAA,-0.218

row,Sequence,PBM E-score
1,CTTATGAA,-0.114
2,CGTTATCA,-0.0712
3,AGCTTCAA,-0.181
4,TAGTGTCA,-0.101
5,AGAATCCT,-0.221
6,AAGACAGC,-0.171
7,ATTCACCC,0.127
8,ATTTTAAC,0.0635
9,TCCCGGAA,0.407
10,GGAATTAC,0.158
11,CGAGGCAC,0.153
12,CCGTAATA,0.127
13,CTCGTTTC,-0.0481
14,CGAGAGAA,0.00907
15,TACGTTGA,-0.225
16,CGCTCTCA,-0.138
17,AATAGGAT,0.113
18,GTGGGGTA,0.132
19,GAGGTTGC,-0.0274
20,AGAACTCC,-0.153
21,TGTTCGAA,-0.0825
22,AACATGAA,-0.167
